From patent publication US20250250343A1 (UNITY BIOTECHNOLOGY, published 2025)

Target: human Tie2 (human, UniProt Q02763 23-1124)
Test: cell-based or functional assay

Chain of UniProt Q02763 (Q02763 23-1124): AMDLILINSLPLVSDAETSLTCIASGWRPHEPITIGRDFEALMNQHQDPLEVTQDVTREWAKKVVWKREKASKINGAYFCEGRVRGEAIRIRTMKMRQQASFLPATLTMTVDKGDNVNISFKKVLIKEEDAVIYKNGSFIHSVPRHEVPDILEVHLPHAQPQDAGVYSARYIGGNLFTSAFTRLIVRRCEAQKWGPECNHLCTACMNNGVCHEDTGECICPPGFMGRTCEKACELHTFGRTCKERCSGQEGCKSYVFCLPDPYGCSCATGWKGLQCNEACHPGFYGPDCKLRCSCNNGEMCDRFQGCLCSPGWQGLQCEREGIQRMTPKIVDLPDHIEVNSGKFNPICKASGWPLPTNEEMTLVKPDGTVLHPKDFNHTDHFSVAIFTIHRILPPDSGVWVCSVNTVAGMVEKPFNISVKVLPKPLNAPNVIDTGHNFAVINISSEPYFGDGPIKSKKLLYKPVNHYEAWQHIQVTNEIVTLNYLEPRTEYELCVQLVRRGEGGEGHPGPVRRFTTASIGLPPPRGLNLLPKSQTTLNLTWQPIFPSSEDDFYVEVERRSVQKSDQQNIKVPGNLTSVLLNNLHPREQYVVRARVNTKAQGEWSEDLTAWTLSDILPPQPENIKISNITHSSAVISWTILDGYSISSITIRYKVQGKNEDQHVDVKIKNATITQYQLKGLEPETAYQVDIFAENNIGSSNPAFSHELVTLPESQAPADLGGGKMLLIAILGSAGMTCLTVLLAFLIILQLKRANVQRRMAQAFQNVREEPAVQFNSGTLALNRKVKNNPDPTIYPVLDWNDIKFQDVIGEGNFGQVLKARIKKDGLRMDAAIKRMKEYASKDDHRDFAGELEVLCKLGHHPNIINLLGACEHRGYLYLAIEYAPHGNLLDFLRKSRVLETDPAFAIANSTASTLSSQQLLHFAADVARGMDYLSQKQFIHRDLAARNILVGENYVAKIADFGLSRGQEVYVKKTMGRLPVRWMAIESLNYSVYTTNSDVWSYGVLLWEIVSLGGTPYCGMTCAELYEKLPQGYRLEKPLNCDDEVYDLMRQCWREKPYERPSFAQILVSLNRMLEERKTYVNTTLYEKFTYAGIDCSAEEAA

B1: #10 (bispecific antibody, human IgG1, kappa, L234A L235A)
heavy chain: DVQLVESGGGVVRPGESLRLSCTASGFTFDSYGMSWVRQAPGKGLEWVSSINVGDNTYYADSVRGRFIISRDSSRNTLYLQMNSLTAEDTAVYYCANWNSFFDYWGLGTLVTVSSASTKGPSVFPLAPSSKSTSGGTAALGCLVKDYFPEPVTVSWNSGALTSGVHTFPAVLQSSGLYSLSSVVTVPSSSLGTQTYICNVNHKPSNTKVDKKVEPKSCDKTHTCPPCPAPEAAGGPSVFLFPPKPKDTLMISRTPEVTCVVVDVSHEDPEVKFNWYVDGVEVHNAKTKPREEQYNSTYRVVSVLTVLHQDWLNGKEYKCKVSNKALGAPIEKTISKAKGQPREPQVYTLPPSREEMTKNQVSLTCLVKGFYPSDIAVEWESNGQPENNYKTTPPVLDSDGSFFLYSKLTVDKSRWQQGNVFSCSVMHEALHNHYTQKSLSLSPGKGGGGSGGGGSDIQLTQSPSSLSASVGDRVTITCSASQDISNYLNWYQQKPGKAPKVLIYFTSSLHSGVPSRFSGSGSGTDFTLTISSLQPEDFATYYCQQYSTVPWTFGQGTKVEIKRTVAAPSVFIFPPSDEQLKSGTASVVCLLNNFYPREAKVQWKVDNALQSGNSQESVTEQDSKDSTYSLSSTLTLSKADYEKHKVYACEVTHQGLSSPVTKSFNRGECGQSSRSSGGGGSSGGGGSEVQLVESGGGLVQPGGSLRLSCAASGYDFTHYGMNWVRQAPGKGLEWVGWINTYTGEPTYAADFKRRFTFSLDTSKSTAYLQMNSLRAEDTAVYYCAKYPYYYGTSHWYFDVWGQGTLVTVSSASTKGPSVFPLAPSSKSTSGGTAALGCLVKDYFPEPVTVSWNSGALTSGVHTFPAVLQSSGLYSLSSVVTVPSSSLGTQTYICNVNHKPSNTKVDKKVEPKSCDKTHL
light chain (kappa): EIVLTQSPGTLSLSPGEIATLSCRASQNVRSDLAWYQQKPGQAPRLLIYDASNRATGIPDRFSGSGSGTDFTLTISSLQSEDFAVYYCQQYSNWPPLTFGGGTKVEIKRTVAAPSVFIFPPSDEQLKSGTASVVCLLNNFYPREAKVQWKVDNALQSGNSQESVTEQDSKDSTYSLSSTLTLSKADYEKHKVYACEVTHQGLSSPVTKSFNRGEC
  EC50, pTie2 in HUVEC (in vitro potency; the sheet's head prints no unit, EC50 in nM per legend paragraph 17): 5.5 nM
